Experimental data published in PubChem BioAssay AID493208 (National Center for Advancing Translational Sciences (NCATS), 2011).
Among all 44,000 compounds or so, about 340 (0.77%) were called active. Roughly 5% stayed inconclusive and do not appear here. Calls follow the shape of the dose curve; as a rule, active = well fitted inhibition curve with a large enough effect; inconclusive = small, poorly fitted or top-dose-only effect; inactive = flat fitted curve, though single readings scatter. This is one part of the list.

Test: Acumen qHTS Assay for Inhibitors of the mTORC1 Signaling Pathway in MEF (Tsc2-/-, p53-/-) Cells: Sytravon;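 also: plate controls were DMSO for no effect and rapamycin for full effect; nearly all actives have a fitted effect of over 50% in size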
Conditions: phospho-rpS6 immunofluorescence/PI, 24 h; series mostly up to 38.3 µM; activity change, negative = inhibition: at the top concentration
Summary of the method: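 Read-out: phospho-S6 Alexa-488 intensity over PI intensity per well, scored as % active cells using thresholds from rapamycin (7.5 nM) and DMSO controls. Tsc2-/-, p53-/- MEFs exposed to compound for 24 h; PI cell count recorded as viability.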

Activity change, negative = inhibition, inactive:
CCN(C(=O)C(NS(=O)(=O)c1cccc2nsnc12)c1ccccc1)c1ccccc1 (configuration not stated) 3.98%
COc1ccc(-c2ccnc3c2c(=O)n(C)c(=O)n3C)cc1OC -0.0535%
COCCCNC(=O)CCCN1C(=O)CCn2nc(-c3cn(C)c4ccccc34)cc21 7.18%
Cc1ccc(C)c(N2CCN(CCCNc3ncnc4onc(-c5ccc(Cl)cc5)c34)CC2)c1 6.28%
Cc1ccc(NC(=O)[C@H](CSCc2ccccc2)N2Cc3ccccc3C2=O)cc1 -9.75%
COc1ccc(OC)c(CNC(=O)CCS(=O)(=O)c2ccc3c(c2)oc(=O)n3C)c1 -1.51%
Cc1cc(C)c(NC(=O)CN2C(=O)c3cccnc3Oc3ccc(Cl)cc32)c(C)c1 -7.95%
Cc1cc(Nc2ccc(C)c(Cl)c2)n2nc(-c3ccccc3)nc2n1 -2.25%
Cc1ccc(C(=O)N2c3nc(-c4ccco4)nn3C3(CCCCC3)[C@@H]3CCCC[C@@H]32)cc1 1.68%
CC1CCN(S(=O)(=O)c2cccc(C(=O)NC3CCS(=O)(=O)C3)c2)CC1 (configuration not stated) -13%
COc1ccc(-c2nc3cc(NC(=O)COc4ccc(F)cc4)ccc3o2)cc1 -9.67%
Cc1csc2nc(-c3cccc(NC(=O)c4ccc(S(N)(=O)=O)cc4)c3)cn12 5.39%
Cn1c(=O)c2c(-c3ccccc3)n3c(c2n(C)c1=O)C(c1cc(Cl)ccc1O)Nc1ccccc1-3 (configuration not stated) 0.241%
O=C(CCNS(=O)(=O)c1cccc2nsnc12)Nc1ccc(F)cc1 0%
Cc1ccc2cccc(NC(=O)c3ccc(-c4ccc(Cl)cc4Cl)o3)c2n1 -4.98%
COc1ccc(OC)c(CNC(=O)c2cc(=O)[nH]c3ccc(S(=O)(=O)N4CCCCC4C)cc23)c1 (configuration not stated) -5.35%
COc1cccc(NC(=O)Cn2c(=O)n(Cc3nc(-c4ccccc4)no3)c(=O)c3ccccc32)c1 0.373%
COc1ccccc1/C=C(\C#N)c1nc(-c2cc3ccccc3oc2=O)cs1 -7.06%
CCC(=O)Nc1ccc(S(=O)(=O)NCc2cccn2Cc2cccc(C)c2)cc1 8.15%
CCOC(=O)N1CCC(NC(=O)c2cnn(-c3ccccc3)c2C2CCN(C(=O)OC(C)(C)C)CC2)CC1 -0.593%
COc1ccc(S(=O)(=O)NCCc2sc(-c3ccccc3)nc2C)cc1OC 2.63%
O=C(NCCC1=CCCCC1)c1ccc2c(c1)ncn2-c1cccc(Cl)c1 0.347%
CCc1ccccc1NC(=O)CSc1ncc2c(n1)-c1ccccc1N(C)S2(=O)=O 5.75%
COc1ccc(-n2c(SCC(=O)NCc3ccccc3)nc3ccsc3c2=O)cc1 -8.17%
COC(=O)c1sccc1S(=O)(=O)N(CC(=O)Nc1cc(C)cc(C)c1)c1ccc(Cl)cc1 -7.87%
COc1ccc(CNC(=O)CN2C(=O)COc3ccc(S(=O)(=O)N4CCCCCC4)cc32)cc1 -2.12%
COc1ccc(NC(=O)c2nn(C)c3c2CSc2ccc(C)cc2-3)cc1OC 0.822%
Cc1ccc(C2Nc3ccccc3-n3c(-c4ccccc4)c4c(=O)n(C)c(=O)n(C)c4c32)cc1 (configuration not stated) -11.9%
COc1cccc(NC(=O)c2ccc3c(=O)n4nc(Nc5ccccc5OC)sc4nc3c2)c1 -7.03%
COc1ccc(CNC(=O)c2ccc(CNS(=O)(=O)c3ccc(OC)cc3)cc2)cc1 -6.89%
COCCCNC(=O)c1ccc(Cn2c(=O)c3ccccc3n(Cc3ccc(C)cc3)c2=O)cc1 -1.14%
COCCOC(=O)Cn1nnc2sc(-c3ccccc3)cc2c1=O 5.57%
CCOC(=O)c1ccc(NC(=O)CC2Nc3cc(C)c(C)cc3NC2=O)cc1 (configuration not stated) 0.657%
Cc1nn(S(=O)(=O)c2ccc(C(C)C)cc2)c(C)c1S(=O)(=O)N1CCCCC1 -0.512%
Cc1ccc2c(c1)-c1c(cnn1CC(=O)N1CCN(c3cccc(C(F)(F)F)c3)CC1)CO2 6.31%
CC(=O)N1CCCc2cc(S(=O)(=O)N3CCCC(C(=O)N4CCN(c5ccccc5F)CC4)C3)ccc21 (configuration not stated) -15%
CCc1cccc(C)c1NS(=O)(=O)c1ccc2c(c1)NC(=O)C(C)C(=O)N2 (configuration not stated) -0.645%
CCOc1ccc(-n2c(=O)c3c4c(sc3n(CC(=O)NCCCOC)c2=O)CCCCC4)cc1 4.15%
Cc1nc(SCC(=O)OC(C)(C)C)c2c3c(sc2n1)CCCC3 -13.4%
CCN(CC)c1ccc2cc(-c3nc(-c4ccccc4)no3)c(=O)oc2c1 0.0245%
O=C(NCc1cccc(Cl)c1)C1CCN(c2nn3cc(-c4ccc(F)cc4)nc3s2)CC1 -2.92%
COc1ccc(-c2cn3nc(N4CCCC(C(=O)Nc5cc(Cl)ccc5OC)C4)sc3n2)cc1 (configuration not stated) -0.786%
Cc1ccc(CNC(=O)c2c(-c3ccc(F)cc3F)noc2C)o1 -4.37%
Cc1cc(C)c(NC(=O)Cn2nnc(C(=O)NCc3cccs3)c2N)c(C)c1 -17.6%
COc1ccc(CC(=O)NCC(c2ccc(N(C)C)cc2)N2CCOCC2)cc1OC (configuration not stated) 0%
Cc1ccccc1OCc1ccc(-c2nc(C#N)c(N3CCCCC3)o2)o1 -4.5%
COc1cc(NC(=O)Cn2c(=O)n(-c3ccccc3)c(=O)c3c4c(sc32)CCCC4)cc(OC)c1 2.05%
